# Test results as given in PubChem BioAssay AID651820 (National Center for Advancing Translational Sciences (NCATS), 2012).
# Values joined by “and” are separate entries in the source; they are usually repeats but may differ in a detail not shown here. Equal entries are not always repeated. About 12,000 (3.5%) of roughly 340,000 compounds were called active. The inconclusive results got no clear call from the source; some entries with a clear call stand among them for comparison. Calls follow the shape of the dose curve; as a rule, active = well fitted inhibition curve with a large enough effect; inconclusive = small, poorly fitted or top-dose-only effect, or another doubt; inactive = no such curve, though single readings can be large or run the other way. Potencies beside an inconclusive call are fits to weak or partial responses and may not hold up.
# Assay: qHTS Assay for Inhibitors of Hepatitis C Virus (HCV)
# Settings: Huh7.5.1 HCVcc-Cre (HCVcc is cell-culture hepatitis C virus) infection, luciferase reporter, 44 h; activity change, negative = inhibition: at 41.8 µM (top of the series) unless noted
# Outline: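 Luciferase read-out (15 sec integration) after a 15 min room-temperature substrate step quantifies HCVcc-Cre infection. Cells, 1,000 per well, had compound added 4 h post-plating, then virus at ~0.5 moi, and were cultured 44 h.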
# % is scaled to controls: 0 for no effect and ±100 for the full control effect; potency is read from the fitted curve at half-maximal effect; tags tell the direction and shape of the fitted curve.
SMILES,Potency,"activity change, negative = inhibition"
CCOc1ccccc1CN1CCN(C2CCN(c3ccccc3F)CC2)CC1CCO (configuration not stated),"inconclusive: 31.6 µM [inhibitor, single point]",
CCC1(C)Cc2c(sc3nc4n(c(=O)c23)CCCS4)CO1 (configuration not stated),"inconclusive: 1 µM [inhibitor, full curve, poor fit]",
NC(=S)N/N=C/c1c[nH]c2ccccc12,"inconclusive: 31.6 µM [inhibitor, single point]",
CC(C)n1c(SCC(=O)c2ccc3c(c2)OCCO3)nc2c1c(=O)n(C)c(=O)n2C,active: 12.6 µM,
CCCCNC(=O)c1cccc(S(=O)(=O)N2CC3(C)CC2CC(C)(C)C3)c1 (configuration not stated),"inconclusive: 31.6 µM [inhibitor, single point]",
COC(=O)c1ccccc1NCCO,"inconclusive: 31.6 µM [inhibitor, single point]",
Cc1ccc(NS(=O)(=O)c2cccc3cccnc23)cc1Cl,"inconclusive: 14.1 µM [inhibitor, single point]",
COc1cccc(C2CCCN2Cc2nc(CCC(C)C)no2)c1 (configuration not stated),"inconclusive: 31.6 µM [inhibitor, single point]",
Cn1c(=O)c2c(SCC(=O)N3CCCC3)nc(CC(C)(C)C)nc2n(C)c1=O,,inactive: -2.17%
O=C(c1ccc(Br)c(S(=O)(=O)N2CCOCC2)c1)N1CCN(C/C=C/c2ccccc2)CC1,"inconclusive: 15.8 µM [inhibitor, single point]",
COc1cccc(NC(=O)N2CCc3ccccc3C2)c1,,inactive: 9.69%
CCNc1oc(/C=C/c2ccc(OCC)cc2)nc1C#N,"inconclusive: 11.2 µM [inhibitor, single point]",
O=C(CSc1ccccn1)N/N=C/c1cccc([N+](=O)[O-])c1,"inconclusive: 5.01 µM [inhibitor, partial curve]",
Cc1ccc(NC(=O)C2CCCN(S(=O)(=O)c3c(C)noc3/C=C/N(C)C)C2)cc1F (configuration not stated),"inconclusive: 11.2 µM [inhibitor, single point]",
O=C(CSc1ncnc2c1cnn2-c1ccccc1)NC1CCS(=O)(=O)C1 (configuration not stated),"inconclusive: 0.891 µM [inhibitor, full curve, poor fit]",
COc1cccc(C(=O)N/N=C(/c2ccccc2)c2ccccn2)c1,"inconclusive: 3.98 µM [inhibitor, full curve]",
COc1ccc(NC(=O)CN(C)CC(=O)Nc2ccc(C)c(S(=O)(=O)N3CCCCC3)c2)cc1,"inconclusive: 10 µM [inhibitor, partial curve]",
O=C(Nc1ccc(N2CCN(C(=O)c3cccs3)CC2)cc1)c1ccc(F)cc1,"inconclusive: 31.6 µM [inhibitor, single point]",
CC1=NN(c2ccc(Cl)cc2)C(=O)C1,,inactive: 23.3%
COc1cccc(NC(=O)CN(C)C(=O)CCNC(=O)c2ccc(Br)cc2)c1,,inactive: -4.76%
COc1cc2c(cc1NS(=O)(=O)N1CCCC1)oc1ccccc12,"inconclusive: 11.2 µM [inhibitor, partial curve]",
COc1ccc(S(=O)(=O)N(CC(=O)Nc2ccc3c(c2)OCO3)c2ccccc2OC)cc1,"inconclusive: 11.2 µM [inhibitor, partial curve]",
O=S(=O)(c1ccccc1)N1N=C(c2cccs2)CC1c1ccc(F)cc1 (configuration not stated),"inconclusive: 31.6 µM [inhibitor, single point]",

SMILES,Potency,"activity change, negative = inhibition"
CCCCOc1ccc(NC(=O)C(=O)NCCCn2ccnc2)cc1,"inconclusive: 22.4 µM [inhibitor, single point]",
Cn1c(SCc2ccccc2)nc2ccsc2c1=O,active: 10 µM,
CCCNC(=S)Nc1ccc(S(N)(=O)=O)cc1,,inactive: 16.8%
Cn1c(=N)c(S(=O)(=O)c2ccccc2)cc2c(=O)n3ccccc3nc21,"inconclusive: 31.6 µM [inhibitor, single point]",
Cc1cc(C)cc(C(=O)NCCn2cc(SCC(=O)N3CCOCC3)c3ccccc32)c1,"inconclusive: 11.2 µM [inhibitor, partial curve, poor fit]",
Cc1nc2c(ccc3nc(NC(=O)C(c4ccccc4)c4ccccc4)sc32)s1,active: 10 µM,
Cc1ccc(C(C)NC(=O)c2ccc3c(c2)OCCO3)cc1C (configuration not stated),"inconclusive: 8.91 µM [inhibitor, partial curve]",
Cn1cccc1C(=O)Nc1nc(-c2ccccn2)cs1,active: 14.1 µM,
CC(C)(C)OC(=O)N1CCC(CNC(=O)c2ccc(F)cc2)CC1,,inactive: -0.305%
COc1ccc(CCN2CCCC(CN(C)Cc3cc(Cl)c(O)c(OC)c3)C2)cc1 (configuration not stated),"inconclusive: 8.91 µM [inhibitor, partial curve]",
Cc1ccc(-c2nnc(SCC(=O)Nc3ccc(S(=O)(=O)N4CCCCCC4)cc3)o2)cc1,,inactive: -3.47%
COC(=O)c1sccc1-c1ccc(C(=O)Nc2ccccc2)o1,"inconclusive: 5.01 µM [inhibitor, partial curve]",
CON(C)C(=O)CCN(C(=O)OC(C)(C)C)c1ccccc1,,inactive: 14.5%
O=C(CNc1ccc(Br)cc1)c1ccccc1,,inactive: -12.2%
Cc1nc(N2CCC(C)CC2)c2c(C)c(C(=O)Nc3ccc(C(F)(F)F)cc3)sc2n1,active: 11.2 µM,
COc1ccc(CCNC(=O)C(=O)NCC2OCCN2S(=O)(=O)c2ccc(C)cc2)cc1OC (configuration not stated),"inconclusive: 11.2 µM [inhibitor, partial curve]",
COc1cccc(NC(=S)N2CCN(C(c3ccccc3)c3ccccc3)CC2)c1,"inconclusive: 8.91 µM [inhibitor, partial curve]",
CCOC(=O)c1ccccc1NC(=O)CSc1nc2ccccc2c(=O)n1CCCN1CCOCC1,"inconclusive: 0.562 µM [inhibitor, partial curve, poor fit]",
N#Cc1ccc(-c2ccc(OCC3CNC(=O)O3)cc2)cc1 (configuration not stated),"inconclusive: 31.6 µM [inhibitor, single point]",
CCCOc1ccc(C(=O)NCC(c2cccs2)N(C)C)cc1OC (configuration not stated),"inconclusive: 5.62 µM [inhibitor, full curve]",
Clc1ccc(-c2nc3ccccc3n2OCc2ccccc2)cc1,"inconclusive: 31.6 µM [inhibitor, single point]",
CCOC(=O)N1CCN(S(=O)(=O)c2ccc(OCC)c(C)c2)CC1,"inconclusive: 3.98 µM [inhibitor, full curve, poor fit]",
c1cncc(-c2nc(NCCCN3CCOCC3)c3c4c(sc3n2)CCC4)c1,"inconclusive: 31.6 µM [inhibitor, single point]",

SMILES,Potency,"activity change, negative = inhibition"
COC/C=C1\CN2C3C[C@@H]1[C@H]1COC4=Nc5cc(OC)c(OC)c(OC)c5[C@@]43C[C@@H]12,"inconclusive: 31.6 µM [inhibitor, partial curve, poor fit]",
COc1ccccc1N1CCN(C(=O)CSc2ccc3c(C)cc(C)nc3n2)CC1,"inconclusive: 31.6 µM [inhibitor, single point]",
Cc1ccc(C(=O)NCc2ccco2)cc1Br,"inconclusive: 10 µM [inhibitor, single point]",
CN(C)S(=O)(=O)N1CCc2ccc(NC(=O)c3ccc(C(F)(F)F)cc3)cc2C1,active: 7.94 µM,
COc1ccc(CCNC(=S)N2CCC(Cc3ccccc3)CC2)cc1OC,"inconclusive: 10 µM [inhibitor, partial curve, poor fit]",
CC(=O)Nc1ccc(C)c(NS(=O)(=O)c2cccc(C(F)(F)F)c2)c1,,inactive: 21%
Cc1ccc(C2(c3ccccc3)NC(=O)N(CC(=O)NCc3ccccc3)C2=O)cc1C (configuration not stated),"inconclusive: 31.6 µM [inhibitor, single point]",
O=C(Nc1ccc(N2CCOCC2)c(Cl)c1)c1ccc(S(=O)(=O)N2CCOCC2)cc1,"inconclusive: 25.1 µM [inhibitor, single point]",
COc1cccc(NC(=O)Nc2cc(C(=O)NC(C)C)ccc2N2CC3CC(C2)c2cccc(=O)n2C3)c1 (configuration not stated),,inactive: -4.14%
N=c1c(C(=O)NC2CCCCC2)cc2c(=O)n3ccccc3nc2n1CC1CCCO1 (configuration not stated),,inactive: -26.4%
Cn1c(N)c(-c2ccccc2)c2ccc([N+](=O)[O-])cc2c1=O,"inconclusive: 7.94 µM [inhibitor, partial curve]",
CCn1ccc(C(=O)Nc2sc3c(c2C(=O)OC)CCC3)n1,"inconclusive: 12.6 µM [inhibitor, partial curve]",
C=C(C)[C@@H]1CC=C(CN2CCC(CCOC)(C(=O)OCC)CC2)CC1,"inconclusive: 10 µM [inhibitor, single point]",
Cc1ccc(-c2cc(C(F)F)nc(NCc3cccnc3)n2)cc1,active: 6.31 µM,
Cc1ccc(C)c(NC(=O)C(=O)NCC2CCCN2S(=O)(=O)c2cccs2)c1 (configuration not stated),"inconclusive: 12.6 µM [inhibitor, partial curve]",
Cc1ccc(-c2nnn(CC(=O)N(CC(=O)NCc3ccccc3)c3cccc(C)c3C)n2)o1,"inconclusive: 10 µM [inhibitor, partial curve] and inconclusive: 2.82 µM [inhibitor, full curve]",
Cc1ccc2cccc(S(=O)(=O)N3CCCc4ccccc43)c2n1,"inconclusive: 11.2 µM [inhibitor, single point]",
CC1(C)Oc2ccc(C(=O)NNC(=O)Nc3ccccc3)cc2NC1=O,,inactive: 14.3%
O=c1[nH]c2cc3c(cc2cc1C(c1nnnn1CC1CCCO1)N1CCCC1)OCO3 (configuration not stated),,inactive: -8.58%
CC(C)=C1SC(N2CCN(c3cccc(Cl)c3)CC2)=NC1=O,"inconclusive: 31.6 µM [inhibitor, single point]",
Cc1cc([N+](=O)[O-])ccc1NC(=O)/C=C/c1cccs1,"inconclusive: 31.6 µM [inhibitor, single point]",
